From PMC2174276 (The Journal of Cell Biology, 2000)

B1: VAMP2 cytoplasmic domain ([…]) (domain or fragment)
chain: not shown
B2: SNAP-25 ([…], four cysteines mutated to alanines) (natural protein)
chain: not shown

Target: syntaxin1A (amino acids 4-266) (UniProt P32851)
Experiment: native gel or EMSA

Sequence of UniProt P32851 (P32851 4-266): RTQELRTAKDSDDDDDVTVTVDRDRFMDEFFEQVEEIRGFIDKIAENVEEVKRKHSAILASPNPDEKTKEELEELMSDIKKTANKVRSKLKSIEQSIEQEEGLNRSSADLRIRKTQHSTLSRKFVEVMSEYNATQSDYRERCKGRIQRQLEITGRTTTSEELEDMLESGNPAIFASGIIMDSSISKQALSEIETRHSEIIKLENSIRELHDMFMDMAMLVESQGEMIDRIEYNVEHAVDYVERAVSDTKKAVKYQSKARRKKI

| Binder | binding result |
| --- | --- |
| B1 | binds |
| B2 | binds |
